Laboratory results as given in the supplement of paper PMC10126150.
Values marked as one replicate rest on one cluster of the flow cell; about a third of the high ones do not repeat.

Tested on: ATP
Assay: switch fluorescence ratio, 500 uM ATP over buffer (Cy3 cluster intensity, sum of 5 cycles each) (fold (ratio)); higher = stronger signal-on switching upon ATP binding; sequences stand for … in TCGTCGGCAGCGTCAGATGTGTATAAGAGACAGTTTTTTTTTTTTTTTTTTTTTTTTT…TC
Conditions: aptamer strand: ATP DNA aptamer (quencher-CACCTGGGGGAGTATTGCGGAGGAAGG + anchor), 100 nM annealed; ATP concentration: 500 uM; one replicate
How it was run: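 Exposure to 500 uM ATP lasted 15 min at 22 °C before imaging, and a selection-buffer image was taken beforehand, for Cy3-labelled switching-strand clusters on a modified Illumina MiSeq flow-cell annealed to 100 nM quencher-labelled ATP aptamer. Five buffer/ATP cycles were run with NaOH stripping and re-annealing between them. The fluorescence ratio per cluster is summed target-cycle over summed buffer-cycle Cy3 intensity, averaged per switch-domain sequence. Clusters outside 100-1000 RFU were excluded.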

| Sequence | switch fluorescence ratio |
| --- | --- |
| AGTCTCACCG | 0.99 |
| GATTATTTTG | 1.04 |
| CCTAGGCTTG | 1.01 |
| ATGTCAGCTA | 1.06 |
| ATAACTACTG | 1.17 |
| GTTTGTCCTA | 1 |
| GACACTAGGA | 1.1 |
| TATTCGAATC | 0.966 |
| CCCAGAGTTG | 1.25 |
| ACATGCAGAG | 1.04 |
| TAGCGTGCC | 0.974 |
| AGGTATAGTC | 1.04 |
| GAGGCCGTT | 1.03 |
| GCTACTGTT | 0.978 |
| GCCCCCGAAG | 1.13 |
| CGCGGGCTGG | 1.03 |
| ACTGTGAGGA | 0.999 |
| ACGGGGCGAT | 1.43 |
| CGTCAGTACG | 1.03 |
| GCCATGTTTG | 0.954 |
| CAGGGGGTTC | 0.988 |
| GATACGGCGC | 1.01 |
| GTGATGGGCA | 1.39 |
| AGAATGTCTA | 0.978 |
| AGTTAATAAG | 0.967 |
| GTTCTCAGG | 1.05 |

| Sequence | switch fluorescence ratio |
| --- | --- |
| CTCCTCGTAG | 1.28 |
| AGAGATCAG | 0.97 |
| TGATTCCACT | 1.04 |
| GTTAACTTGC | 1.08 |
| TTACAGAAGG | 1.01 |
| ATGGTCGAT | 0.973 |
| ACCACCGGGG | 1.06 |
| CGGCTTGGAC | 1.05 |
| TATTACGGAA | 1.01 |
| AGTAAGTCTA | 0.988 |
| TTAGAATTTC | 1.1 |
| GACATGGGTA | 0.951 |
| GGTAACGTC | 1.01 |
| AACCGAGAGA | 1.03 |
| TTCAAATTAC | 1.25 |
| GCACTCGGGT | 1.03 |
| AGGTGTACTA | 1.05 |
| GTGAACGAAT | 1 |
| TTGGCCAATA | 0.976 |
| ATTTAGTTGC | 1.06 |
| TCTACACCCG | 1.09 |
| CTCTTAGTC | 1.02 |
| AAGACACACT | 1.36 |
| GGCTTATTAA | 1 |
| GATGGGCTAT | 1.05 |
| CAGCCCTGCG | 0.905 |

| Sequence | switch fluorescence ratio |
| --- | --- |
| GATATTCCAC | 1.03 |
| AGGGAGGTCA | 1 |
| GGCCTAAAGT | 1.02 |
| AGGGAGACGA | 1.07 |
| AGCAATATAA | 1.65 |
| TTGGGTGGAT | 1.42 |
| TGGGGCGAG | 0.939 |
| TCCGAACCTG | 1.12 |
| CGCTGATTGA | 1.04 |
| GGGACAGAAT | 1 |
| ATAGACCAGG | 1.11 |
| GCAAACTTAA | 1.04 |
| AGTTGGTACC | 0.996 |
| GAGAAAAACT | 1.08 |
| ATATTCCAAA | 0.987 |
| CAAAGGGATT | 0.966 |
| TGGACGGCTA | 1.03 |
| TTTTATCCAC | 1.06 |
| GACAAGTGAC | 1.21 |
| GTAGTTGTAG | 0.991 |
| ACAGCCTATT | 1.01 |
| AGTCTTGCAC | 0.988 |
| GGCGGCGTGA | 0.984 |
| CCCCGCCCCG | 1.89 |
| GAACGAGCCC | 1.09 |
| TATTCCTAGT | 1 |

| Sequence | switch fluorescence ratio |
| --- | --- |
| ACCTAACGCA | 1.67 |
| ACCATGAACG | 1.09 |
| CCACGAGCTA | 1.55 |
| AAACTGTTAC | 1.19 |
| AACGGAGGCG | 1.01 |
| CGCGAGTTAG | 1.06 |
| AGAGAGGGCT | 0.992 |
| TAAAGCAGTG | 1.06 |
| TGATGTATTC | 0.975 |
| CAGGGGTATG | 1.03 |
| ACGGGGCGTG | 0.999 |
| TGCCTACGAA | 1.28 |
| TCCTCACGTT | 1.68 |
| TGTGTACATT | 1 |
| GACCTAGTGA | 1.02 |
| TTTTCGCGGT | 1 |
| TGTCCAAAAG | 1.01 |
| ATTATTTGTT | 1 |
| GCGGCTCTGG | 0.985 |
| CCCGTCTGTC | 1.06 |
| GGCGTGACTG | 0.999 |
| CCTTGGATCA | 0.972 |
| CCCTATTTGT | 0.974 |
| CTAGCAGTGT | 0.998 |
| ACAATGGGTG | 1.22 |
| GGAGCCCATC | 1.05 |

| Sequence | switch fluorescence ratio |
| --- | --- |
| AGCATTGGAT | 0.991 |
| GACTGGG | 0.98 |
| TATTTTTCTA | 1 |
| GCAATGATAA | 1.06 |
| TTATAGAAGT | 1.01 |
| AGGGCCAAA | 0.976 |
| GAATCAATTT | 0.937 |
| ATCATGTTAC | 1.06 |
| AACAATTTGA | 0.963 |
| TGACTTTAAC | 0.973 |
| CCTGGGGCTC | 1.06 |
| CTATGAGAT | 0.954 |
| GAGGTAGCAG | 1.03 |
| TCCGATCGTT | 1.69 |
| CTTATTCGGT | 0.959 |
| ATGGCCCCTG | 1.03 |
| AAGACATGTG | 1 |
| CTTGCACGCT | 0.978 |
| AGGAAATCGC | 0.993 |
| AGCCGATTCT | 1.02 |
| TTTCTATGCT | 1.04 |
| CAGCGATCGG | 1.03 |
| GTCCAATAGG | 0.985 |
| TTTTAGAACA | 0.986 |
| AGACGATGTC | 0.986 |
| TGATGGGTG | 1.03 |

| Sequence | switch fluorescence ratio |
| --- | --- |
| GGGTATTCCC | 0.974 |
| ATGTTAGTAA | 0.996 |
| GAGTCACATG | 1.03 |
| CTAGGGCCCG | 0.966 |
| TTTATTGTAG | 0.94 |
| ATAGAAGGAG | 0.991 |
| AAGAACACGC | 1.18 |
| AGCTATGACA | 0.995 |
| AAGGACCAAG | 1.03 |
| CATCGGGCG | 1.01 |
| TTTCTGCAAC | 1.44 |
| AGATGTTCGA | 0.968 |
| GACGCGTATC | 1.88 |
| GGTTAGAGAG | 0.998 |
| GTTGGTTG | 0.985 |
| TACTTGTGGC | 0.996 |
| TCCAATGTAC | 2.79 |
| AGCTTATGG | 0.997 |
| TAGCCTTTAT | 0.989 |
| TAAGGTATTC | 1.03 |
| TCCAAAGACC | 1.05 |
| TTGCGTACAT | 0.999 |
| TTCTCGAGAC | 0.99 |
| TGCGAAGAGG | 1 |
| AGATACTCGC | 1.35 |
| AAGGGGTACG | 1.03 |

| Sequence | switch fluorescence ratio |
| --- | --- |
| TACTTTACTC | 1.39 |
| TCATGGGATT | 0.999 |
| TCAACGACGG | 1.03 |
| GCTCCGTCAG | 4.67 |
| GGGAGCGTAG | 0.971 |
| TCAAAACAGG | 1.05 |
| TCAGAGTCGC | 0.932 |
| CACGTGTAAT | 1.02 |
| TTACTCAGTT | 1.01 |
| GAAGGAGGG | 1.01 |
| GACTGGACTA | 1.16 |
| ATGTACCAGT | 1.04 |
| ACCAGAACAG | 1 |
| GCTATTAGAG | 0.984 |
| GTGCTACGGT | 0.998 |
| GGTTCAGTT | 1.01 |
| CACTTTTCGT | 0.969 |
| GCGGCCCGGA | 1.01 |
| CTTTGAGGAC | 1.03 |
| TCAACGTAAT | 1.84 |
| TTGTGTGTTC | 0.99 |
| CTGCGCTTGC | 1.45 |
| AAACCCTATG | 1.03 |
| TGTTATGCTT | 0.995 |
| ATGAAAGGCA | 0.964 |
| CACCCCGCTA | 3.46 |

| Sequence | switch fluorescence ratio |
| --- | --- |
| GGCCTATTAT | 1.01 |
| TGGGCTCGGG | 1.01 |
| ATTTTATACG | 1.06 |
| AATATTACCA | 1.04 |
| TTTGCGACGA | 1.05 |
| CATCATAAGT | 0.992 |
| TTGGTCTCGT | 1.08 |
| TTATAACTAC | 1.07 |
| CGCTTGTTAC | 2.08 |
| TGAATAGACA | 0.991 |
| CGATGTAAGC | 1.38 |
| TTTACTGTG | 0.994 |
| GATGAAGTTA | 1.02 |
| CAATTGGTCA | 1.03 |
| CGGGGCTAGA | 1.02 |
| GCGAAGATAG | 1.03 |
| TCTATCGCCT | 1.06 |
| TTCCTGGGAT | 0.98 |
| GACTGGCTGT | 1.09 |
